Data: the supplement of paper PMC3334620
Whole data set: some 33,000 sequences, median “E-score (-0.5 to 0.5)” near -0.041, cut for the highest 2% near 0.37. This is one part of the list.

target: T1, Ecm22 (UniProt Q05958); experiment: PBM E-score (8-mer binding enrichment) (E-score (-0.5 to 0.5)); higher = stronger / more preferred TF binding; most listed sequences are background and not binding sites; settings: protein concentration: 200 nM; construct: GST-full length
T1 sequence: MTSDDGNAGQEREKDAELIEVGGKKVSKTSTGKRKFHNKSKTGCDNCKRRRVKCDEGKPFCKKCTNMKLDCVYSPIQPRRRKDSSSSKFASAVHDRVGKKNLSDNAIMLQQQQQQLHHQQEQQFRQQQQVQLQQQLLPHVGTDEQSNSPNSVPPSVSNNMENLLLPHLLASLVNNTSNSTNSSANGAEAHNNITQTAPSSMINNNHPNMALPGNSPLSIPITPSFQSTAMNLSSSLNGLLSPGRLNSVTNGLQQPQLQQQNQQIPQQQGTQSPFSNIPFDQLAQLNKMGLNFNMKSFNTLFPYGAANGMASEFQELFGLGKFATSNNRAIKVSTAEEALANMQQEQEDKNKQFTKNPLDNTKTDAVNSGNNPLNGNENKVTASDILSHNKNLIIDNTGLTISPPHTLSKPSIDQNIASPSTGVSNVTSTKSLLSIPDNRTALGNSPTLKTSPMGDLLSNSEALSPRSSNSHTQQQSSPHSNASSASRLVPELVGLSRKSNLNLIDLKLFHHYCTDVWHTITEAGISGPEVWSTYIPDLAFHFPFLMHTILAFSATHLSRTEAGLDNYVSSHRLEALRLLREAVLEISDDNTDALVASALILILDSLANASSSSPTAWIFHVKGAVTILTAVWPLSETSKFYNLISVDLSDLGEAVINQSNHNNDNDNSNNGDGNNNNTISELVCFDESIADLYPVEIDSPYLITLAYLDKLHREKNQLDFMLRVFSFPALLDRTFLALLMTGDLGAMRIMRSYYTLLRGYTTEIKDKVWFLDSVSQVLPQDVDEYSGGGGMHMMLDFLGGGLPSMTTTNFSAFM
Procedure: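 Universal 'all 10-mer' protein binding microarrays (Agilent AMADID 015681) probed with GST-tagged S. cerevisiae TFs (full-length or DBD) made by in vitro transcription/translation (PURExpress), about 100-200 nM. Bound TF was detected with fluorescent anti-GST. Each ungapped 8-mer (which stands for itself and its reverse complement) is scored by the PBM enrichment score (E-score), a modified Wilcoxon-Mann-Whitney statistic from -0.5 to +0.5, computed with the Universal PBM Analysis Suite. Scale: above 0.35 generally sequence-specific binding.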

Compared with GCCTAGAC, AAACAGTC is lower in “PBM E-score” value: 0.0217 for the first, -0.058 for the second.

Compared with CAGTATAA, TCGTTTCA is higher in “PBM E-score” value: 0.004 for the first, 0.396 for the second.

First: CGAGTCGA
Second: CGGGAGAG
The “PBM E-score” value of the first is higher: 0.249 for the first, 0.0796 for the second.

Compared with ACATTGCC, CAAAGAAG is higher in “PBM E-score” value: -0.2 for the first, 0.0285 for the second.

First: CCATGGAG
Second: AGCGGGTC
The “PBM E-score” value of the first is lower: -0.246 for the first, -0.0372 for the second.

First: GACAGAAA
Second: GACAGCAC
The “PBM E-score” value of the first is higher: 0.219 for the first, 0.103 for the second.

First: CTCACGAA
Second: AAATTGAA
The “PBM E-score” value of the first is higher: 0.128 for the first, -0.166 for the second.

First: AGGAGGGG
Second: GCACATTA
The “PBM E-score” value of the first is lower: -0.2 for the first, -0.0239 for the second.

First: AACTCGCA
Second: CCTAGCCA
The “PBM E-score” value of the first is higher: 0.223 for the first, -0.177 for the second.

First: ATATGGGA
Second: AAGAGAAC
The “PBM E-score” value of the first is lower: -0.124 for the first, 0.217 for the second.

First: AAGGAAAT
Second: CGGCTTAC
The “PBM E-score” value of the first is lower: -0.137 for the first, 0.0978 for the second.

Going from ATCTGTCC to AGGCAGGA, the “PBM E-score” value rises from -0.198 to -0.0717.

Going from GTGCCGAA to CGCAGCAG, the “PBM E-score” value falls from 0.0561 to -0.0519.

Going from AAGAACAG to AGTTGTAC, the “PBM E-score” value rises from -0.13 to 0.124.

Compared with CGAGAGTC, CTATTCTC is lower in “PBM E-score” value: 0.0669 for the first, -0.212 for the second.

Going from CATACTAA to CTGGGCAC, the “PBM E-score” value falls from 0.0964 to 0.0366.

First: ACTGATAA
Second: ACTCCTCT
The “PBM E-score” value of the first is lower: -0.139 for the first, -0.113 for the second.

Going from CCGACGTC to TAGAGATA, the “PBM E-score” value falls from 0.138 to 0.0142.

Compared with TGTGCACA, ATACGACG is higher in “PBM E-score” value: -0.183 for the first, 0.485 for the second.

Compared with CAACGTAG, CCGTTAGA is lower in “PBM E-score” value: 0.0404 for the first, 0.0314 for the second.

Going from GCAGACGA to GCGGCACC, the “PBM E-score” value falls from 0.176 to -0.0132.

Compared with CTGACCCA, CGCTCTTA is higher in “PBM E-score” value: -0.312 for the first, 0.215 for the second.

First: CCCGTTGC
Second: GCAAGTTA
The “PBM E-score” value of the first is higher: 0.111 for the first, -0.0155 for the second.

Compared with GCTGCGAC, CGCGGAGC is higher in “PBM E-score” value: -0.107 for the first, 0.116 for the second.

First: GGTTTGAA
Second: CATAGTGC
The “PBM E-score” value of the first is higher: 0.0742 for the first, 0.0266 for the second.

Going from AAGTTAGC to ATATTCCG, the “PBM E-score” value falls from 0.0401 to -0.0407.

First: AGTGTGTC
Second: GTCCGAAA
The “PBM E-score” value of the first is lower: 0.0483 for the first, 0.249 for the second.

First: ACACCCGT
Second: CGCAAGGA
The “PBM E-score” value of the first is higher: 0.154 for the first, 0.00205 for the second.

Compared with GGGCTATA, ACCACTAA is higher in “PBM E-score” value: -0.162 for the first, 0.123 for the second.

Going from ACGACAAT to AAGGTGGT, the “PBM E-score” value falls from 0.368 to -0.298.

Going from CGAACAAG to ATTAGAGA, the “PBM E-score” value falls from 0.158 to -0.0682.

Going from GCATGATA to CCAGTCAG, the “PBM E-score” value falls from -0.031 to -0.31.

Compared with GCCACCCC, ACAGACGT is higher in “PBM E-score” value: -0.106 for the first, -0.0727 for the second.

Compared with CATTGATA, TGAAGTCA is lower in “PBM E-score” value: 0.0226 for the first, -0.133 for the second.

Going from CACATATA to CCCTGGAC, the “PBM E-score” value falls from -0.117 to -0.193.

First: CACGACAG
Second: GCCTATTA
The “PBM E-score” value of the first is higher: 0.0642 for the first, -0.0588 for the second.

Compared with AATTCTCC, CATGAACA is higher in “PBM E-score” value: -0.0147 for the first, 0.0163 for the second.

Going from AGTATGAG to CAAACTCG, the “PBM E-score” value rises from -0.0843 to 0.0876.

First: AGGCCGCG
Second: ATTCGCAC
The “PBM E-score” value of the first is lower: -0.0473 for the first, 0.189 for the second.

Compared with CGTTAGAC, GATAGAGA is lower in “PBM E-score” value: 0.0318 for the first, -0.0432 for the second.

Compared with GAACGGAA, CAAATGAG is lower in “PBM E-score” value: 0.34 for the first, -0.00945 for the second.

First: ACCGGAAT
Second: AGCCCGTC
The “PBM E-score” value of the first is higher: -0.079 for the first, -0.207 for the second.

First: AAAACGAA
Second: AATATTGG
The “PBM E-score” value of the first is higher: 0.277 for the first, -0.0443 for the second.

Compared with CGGATGCC, AATGGTTG is lower in “PBM E-score” value: 0.097 for the first, -0.095 for the second.

Compared with GTTCGAAC, ACGTGGCG is lower in “PBM E-score” value: 0.217 for the first, 0.0766 for the second.

Compared with ATGCTCTC, CTTAAGGA is lower in “PBM E-score” value: -0.0494 for the first, -0.198 for the second.

Compared with TATATAGA, AGGTGCGG is lower in “PBM E-score” value: 0.183 for the first, -0.0606 for the second.

First: AAGACAGA
Second: AAACATTT
The “PBM E-score” value of the first is higher: 0.0769 for the first, -0.0803 for the second.

Compared with GGTGCACA, ATCGAAAG is higher in “PBM E-score” value: -0.0783 for the first, -0.00466 for the second.

Going from CCTATTTA to ACCGCACT, the “PBM E-score” value rises from -0.2 to 0.188.

Going from AGGAACCC to AATAACAG, the “PBM E-score” value rises from -0.094 to 0.00164.

Going from CAACAGGA to CTACGGGA, the “PBM E-score” value rises from -0.194 to 0.146.

Compared with ATACCCGC, AGTCGAAG is lower in “PBM E-score” value: 0.0566 for the first, -0.17 for the second.

Going from ACCTCGCT to AGGCGATG, the “PBM E-score” value falls from 0.29 to -0.12.

First: CGAACTCG
Second: CCTCAGCA
The “PBM E-score” value of the first is higher: 0.307 for the first, -0.151 for the second.

Going from GAGAGGAC to TTATAAAA, the “PBM E-score” value rises from -0.187 to -0.0561.

First: GAACTGTC
Second: ACTCGCAG
The “PBM E-score” value of the first is higher: 0.103 for the first, 0.0817 for the second.

First: CCTATTCA
Second: TCTACTCA
The “PBM E-score” value of the first is higher: -0.127 for the first, -0.182 for the second.

First: AACTCCCC
Second: CACTTGGC
The “PBM E-score” value of the first is higher: -0.0812 for the first, -0.225 for the second.

First: CCGTAATC
Second: CCGTCGTA
The “PBM E-score” value of the first is lower: 0.0909 for the first, 0.471 for the second.

First: CCTTAGAG
Second: GTATGGAC
The “PBM E-score” value of the first is lower: -0.225 for the first, 0.0646 for the second.

Going from GGATATCA to GCGCACGA, the “PBM E-score” value falls from -0.028 to -0.0468.

First: AAGACCCT
Second: AAGGACCC
The “PBM E-score” value of the first is higher: -0.199 for the first, -0.239 for the second.

Compared with GAAAATCC, ACGAGATA is higher in “PBM E-score” value: 0.0126 for the first, 0.346 for the second.

First: AACAATGC
Second: TCTCCACA
The “PBM E-score” value of the first is higher: -0.0238 for the first, -0.283 for the second.

First: CACTGCGG
Second: CAGAGGCC
The “PBM E-score” value of the first is higher: 0.0326 for the first, -0.0219 for the second.

Compared with CAATCTAC, GGTGCGAC is higher in “PBM E-score” value: -0.0683 for the first, 0.211 for the second.

Going from GCTCGGCA to CTGAGTAC, the “PBM E-score” value falls from 0.0931 to -0.0208.

Compared with CCGGCATA, CGTCTAAA is lower in “PBM E-score” value: 0.0151 for the first, -0.0198 for the second.

First: CAGAATAA
Second: AGTTCAAA
The “PBM E-score” value of the first is higher: -0.0347 for the first, -0.149 for the second.

Going from AACCCTAT to AGGCCTAG, the “PBM E-score” value falls from -0.0857 to -0.272.

Compared with GCATTATA, CTGCAGAC is higher in “PBM E-score” value: -0.0633 for the first, -0.0407 for the second.

Compared with ATAAATAG, CCAGATAC is higher in “PBM E-score” value: 0.0526 for the first, 0.0732 for the second.

Going from GCTCAATA to TCCTGTCA, the “PBM E-score” value rises from -0.0598 to 0.143.

Going from CTAGGAAG to AAGTTCGC, the “PBM E-score” value rises from -0.309 to 0.21.

Compared with ACTGCCCC, TCAGTAGA is higher in “PBM E-score” value: -0.227 for the first, -0.126 for the second.

Compared with GGAATGAA, AAGTACAT is higher in “PBM E-score” value: -0.0789 for the first, 0.0633 for the second.

First: CTTTAGAC
Second: GTCTATTA
The “PBM E-score” value of the first is lower: -0.147 for the first, 0.00854 for the second.

First: CACCCGTG
Second: CGTGGTTC
The “PBM E-score” value of the first is lower: -0.0774 for the first, 0.0382 for the second.

Compared with AATTCCCC, GATGACTA is higher in “PBM E-score” value: -0.16 for the first, -0.123 for the second.

Compared with ATACTAGC, CAATGTAC is lower in “PBM E-score” value: 0.144 for the first, 0.00988 for the second.

Going from GGATCAAC to GATTTCCC, the “PBM E-score” value rises from -0.00834 to 0.0284.

First: CGGCTAAC
Second: AGCGGACT
The “PBM E-score” value of the first is higher: 0.0416 for the first, -0.175 for the second.

Going from AACGTTAA to ATTAGGAA, the “PBM E-score” value falls from 0.184 to -0.0155.

Compared with ATCCGGAC, GATAGAAC is higher in “PBM E-score” value: -0.158 for the first, 0.059 for the second.

Going from ATTGCTGA to AGATCTTC, the “PBM E-score” value rises from -0.0619 to -0.0142.
